Measured values: the supplement of paper PMC12355420
Structures can show the parent of a compound that is named as a salt. The list shows a part of the results. No stated cut-off is given here; in the data, active = 0.5 or less and inactive = the rest. Many values rest on one well or one pass, so single values are uncertain.

Key:
Details in all cases: 50 µM; 24 h
[1] = test system: HeLa VPS33A reporter cells; experiment: relative cell viability (CellMask signal) vs DMSO (fraction of DMSO); higher = less cytotoxic;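 further: primary screen of an FDA-approved drug library in HeLa reporter cells in 96-well format, CellMask signal normalized to DMSO-treated wells set as 1, under 0.5 deemed highly cytotoxic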
[2] = test system: HeLa VPS33A R498W KI + HA-SDC1-FLAG; experiment: relative GAG core protein HA-SDC1 amount per cell number vs DMSO (fraction of DMSO); higher = more SDC1 (GAG core protein);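 further: HA-SDC1 level read out by In-Cell Western staining with an anti-HA antibody against the N-terminal tag, screening FDA-approved library drugs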
[3] = test system: HeLa VPS33A KO + NLuc-VPS33A R498W; experiment: relative mutant VPS33A R498W amount (NanoLuc luminescence) vs DMSO (fraction of DMSO); HeLa model of a glycosaminoglycan (GAG) storage disease; KI is knock-in and KO knock-out; SDC1 is syndecan 1; higher = higher mutant VPS33A level;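 further: screen of an FDA-approved drug library, NanoLuc luminescence read after lysing the treated cells, taken as a measure of mutant VPS33A protein stability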

Compound	relative cell viability [1]	relative GAG core protein HA-SDC1 amount per cell number [2]	relative mutant VPS33A R498W amount [3]
N[C@@H](Cc1ccc(O)c(O)c1)C(=O)O [Levodopa]	1.15	inactive: 1.5	0.682
COc1ccc([C@@H]2Sc3ccccc3N(CCN(C)C)C(=O)[C@@H]2OC(C)=O)cc1 [Diltiazem HCl]	0.96	inactive: 0.76	0.742
NC(=O)c1cc[n+](CC2=C(C(=O)[O-])N3C(=O)[C@@H](NC(=O)[C@@H](c4ccccc4)S(=O)(=O)O)[C@H]3SC2)cc1 [Cefsulodin (sodium salt)]	1.02	inactive: 0.829	1.74
CNC(=O)c1ccc(N2C(=S)N(c3ccc(C#N)c(C(F)(F)F)c3)C(=O)C2(C)C)cc1F [MDV3100 (Enzalutamide)]	1.2	inactive: 0.973	0.714
O=c1[nH]c(=O)n([C@H]2C[C@H](O)[C@@H](CO)O2)cc1C(F)(F)F [Triflurdine (Viroptic)]	1.54	inactive: 0.87	0.949
CCc1cc2c(cc1N1CCC(N3CCOCC3)CC1)C(C)(C)c1[nH]c3cc(C#N)ccc3c1C2=O	1.56	inactive: 2.05	0.809
COc1cc(CNC(=O)CCCC/C=C/C(C)C)ccc1O [Capsaicin]	1.12	inactive: 1.27	1.25
C[C@H](CCC(=O)NCCS(=O)(=O)O)[C@H]1CC[C@H]2[C@@H]3[C@@H](O)C[C@@H]4C[C@H](O)CC[C@]4(C)[C@H]3CC[C@]12C [Tauroursodeoxycholic Acid]	1.11	inactive: 0.943	1.55
Nc1[nH]cnc2ncnc1-2 [Adenine sulfate]	0.896	inactive: 1.33	0.907
O=C(O)c1cc(O)c2c(c1)[C@H]([C@H]1c3cc(C(=O)O)cc(O)c3C(=O)c3c(O[C@@H]4O[C@H](CO)[C@@H](O)[C@H](O)[C@H]4O)cccc31)c1cccc(O[C@@H]3O[C@H](CO)[C@@H](O)[C@H](O)[C@H]3O)c1C2=O [Sennoside A]	0.939	inactive: 1.01	0.712
Cc1cc(C2CCCCC2)n(O)c(=O)c1 [Ciclopirox]	0.938	active: 0.45	2.07
CC(=O)Nc1ccc(O)cc1 [Acetaminophen]	0.927	inactive: 0.916	1.11
Nc1nc2n[nH]nc2c(=O)[nH]1 [Azaguanine-8]	0.773	active: 0.341	9.19
CC(C)(C)C(=O)OCOP(=O)(COCCn1cnc2c(N)ncnc21)OCOC(=O)C(C)(C)C [Adefovir Dipivoxil]	1.1	inactive: 0.59	1.68
CC[C@@H]1/C=C(\C)C[C@H](C)C[C@H](OC)[C@H]2O[C@@](O)(C(=O)C(=O)N3CCCC[C@H]3C(=O)O[C@H](/C(C)=C/[C@@H]3CC[C@H](Cl)[C@H](OC)C3)[C@H](C)[C@@H](O)CC1=O)[C@H](C)C[C@@H]2OC [Pimecrolimus]	0.854	inactive: 0.531	0.619
CO/N=C(\C(=O)N[C@@H]1C(=O)N2C(C(=O)O)=C(CSC(=O)c3ccco3)CS[C@H]12)c1csc(N)n1 [Ceftiofur HCl]	1.02	inactive: 0.966	1.6
Cn1c(=O)cc(N2CCC[C@@H](N)C2)n(Cc2ccccc2C#N)c1=O [Alogliptin Benzoate]	1.12	inactive: 1.16	1.3
Brc1c(NC2=NCCN2)ccc2nccnc12 [Brimonidine Tartrate]	1.09	inactive: 1.29	1.48
COc1nc2ccc(Br)cc2cc1[C@@H](c1ccccc1)[C@@](O)(CCN(C)C)c1cccc2ccccc12 [Bedaquiline]	0.63	active: 0.299	0.5
CC(C)=CCC[C@](C)(O[C@@H]1O[C@H](CO)[C@@H](O)[C@H](O)[C@H]1O)[C@H]1CC[C@]2(C)[C@@H]1[C@H](O)C[C@@H]1[C@@]3(C)CC[C@H](O)C(C)(C)[C@@H]3[C@@H](O[C@@H]3O[C@H](CO)[C@@H](O)[C@H](O)[C@H]3O[C@@H]3O[C@@H](C)[C@H](O)[C@@H](O)[C@H]3O)C[C@]12C [Ginsenoside Re]	0.943	inactive: 0.732	1.32
Nc1ncnc2c1ncn2[C@@H]1O[C@H](CO)[C@@H](O)[C@H]1O [Adenosine]	1.14	inactive: 0.783	1.64
CC(=O)OCC(=O)[C@@]1(O)CC[C@H]2[C@@H]3CCC4=CC(=O)C=C[C@]4(C)[C@H]3[C@@H](O)C[C@@]21C [Prednisolone Acetate]	0.973	inactive: 1.1	0.908
